The list shows a part of the results. The energies were worked out here from pooled read counts, against the library average; single values are noisy.

The target in this experiment is T1, Pho4 (S. cerevisiae) (UniProt P07270).
T1 sequence: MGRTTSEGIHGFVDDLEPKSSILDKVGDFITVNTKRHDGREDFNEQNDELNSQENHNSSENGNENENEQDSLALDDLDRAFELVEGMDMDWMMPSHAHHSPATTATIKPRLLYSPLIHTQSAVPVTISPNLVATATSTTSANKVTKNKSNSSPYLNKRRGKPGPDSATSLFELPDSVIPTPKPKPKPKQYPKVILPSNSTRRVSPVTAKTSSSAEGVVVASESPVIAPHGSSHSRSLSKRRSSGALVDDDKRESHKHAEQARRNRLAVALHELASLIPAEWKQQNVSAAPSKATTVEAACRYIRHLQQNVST
Briefly: relative binding free energy (BET-seq); higher = weaker binding. The following applies: reference: library average.
As for GGACGCACGTGCGGGG, the “relative binding free energy” value was -0.13 kcal/mol. For the sequence TTATACACGTGATGTC, the “relative binding free energy” value was found to be 0.17 kcal/mol.

Take ATTTCCACGTGTAGTT: the “relative binding free energy” value worked out at 0 kcal/mol.

Take TAGGGCACGTGTTAAG: the “relative binding free energy” value is -0.05 kcal/mol. TTGACCACGTGAGGGT: the “relative binding free energy” value came out at 0.17 kcal/mol. In the case of TTGGCCACGTGTATGG, the “relative binding free energy” value was -0.11 kcal/mol.

In the case of AAAGGCACGTGGTCAT, the “relative binding free energy” value is -0.01 kcal/mol. For TTTATCACGTGCGGGG, the “relative binding free energy” value was 0.13 kcal/mol. As to TTATTCACGTGACTGT, the “relative binding free energy” value worked out at 0.3 kcal/mol. As for GAAGGCACGTGGCGTG, the “relative binding free energy” value was -0.19 kcal/mol. Turning to TTGGGCACGTGTCCGG, the “relative binding free energy” value was -0.16 kcal/mol. Consider GGTGGCACGTGCAATG, for which the “relative binding free energy” value worked out at 0.04 kcal/mol. As to ACGAGCACGTGGTGTT, the “relative binding free energy” value is -0.29 kcal/mol. For the sequence TGGTACACGTGTAGAG, the “relative binding free energy” value is 0.16 kcal/mol.

Take TAATACACGTGGGTAT: the “relative binding free energy” value is -0.07 kcal/mol. The figure for GGTGCCACGTGTGGGC is 0.01 kcal/mol; for AAGGACACGTGTTGGG it is 0.05 kcal/mol; for TTCGACACGTGTGTGT it is 0.07 kcal/mol. On to GTGTTCACGTGGAGAG, for which the “relative binding free energy” value worked out at 0.22 kcal/mol. With GCTTTCACGTGGTGGC, the “relative binding free energy” value was 0.26 kcal/mol.

As for TCCGTCACGTGGTGGA, the “relative binding free energy” value was 0.15 kcal/mol. As to GTGCGCACGTGTGGCT, the “relative binding free energy” value worked out at 0.02 kcal/mol.

Take AAGTGCACGTGTGATA: the “relative binding free energy” value was -0.02 kcal/mol.

Regarding TACAACACGTGGTTGG, the “relative binding free energy” value was 0.08 kcal/mol. On to AGTGACACGTGTGACT, for which the “relative binding free energy” value was 0.18 kcal/mol. On to GATGTCACGTGCGTAT, for which the “relative binding free energy” value is 0.07 kcal/mol. As to TGTTCCACGTGTGTCT, the “relative binding free energy” value was found to be 0.1 kcal/mol.

For CGAAGCACGTGGGTGA, the “relative binding free energy” value is -0.17 kcal/mol.

For the sequence GTGTACACGTGAGATT, the “relative binding free energy” value is 0.4 kcal/mol.

As for GTTCTCACGTGCGGGC, the “relative binding free energy” value stood at 0.38 kcal/mol.

As to AATAACACGTGCGGGG, the “relative binding free energy” value is -0.02 kcal/mol. On to AGCGTCACGTGTAGGG, for which the “relative binding free energy” value is 0.01 kcal/mol.

Consider TTGGACACGTGCGGAT, for which the “relative binding free energy” value was 0.01 kcal/mol. Turning to AAGATCACGTGTGTTT, the “relative binding free energy” value was 0.24 kcal/mol.

As to GCTGCCACGTGGGAGG, the “relative binding free energy” value is -0.22 kcal/mol. On to CGGTTCACGTGGGGTA, for which the “relative binding free energy” value came out at 0.08 kcal/mol.

As for GTATTCACGTGGTAGA, the “relative binding free energy” value stood at 0.23 kcal/mol.

As for ATGGTCACGTGGATTC, the “relative binding free energy” value was found to be 0.17 kcal/mol. Regarding AGTACCACGTGTGGTT, the “relative binding free energy” value was found to be 0.01 kcal/mol.

With GTGGGCACGTGAGGGA, the “relative binding free energy” value came to 0.28 kcal/mol. As for GCCATCACGTGGTGGT, the “relative binding free energy” value amounted to 0.08 kcal/mol. Consider ATCGTCACGTGGTTGG, for which the “relative binding free energy” value amounted to 0.11 kcal/mol.

For the sequence GTTGGCACGTGAGGTA, the “relative binding free energy” value turned out to be 0.13 kcal/mol. The value for TGTGTCACGTGCAGTA was 0.09 kcal/mol; that for GGGTTCACGTGTCCGG was 0.3 kcal/mol. The value for GTCGTCACGTGATTAG was 0.39 kcal/mol. The value for GGTTACACGTGTGCTA was 0.11 kcal/mol; that for TATTGCACGTGGCAAG was -0.14 kcal/mol; that for TAATGCACGTGCGTAG was 0.02 kcal/mol. Turning to TTGGGCACGTGGCACG, the “relative binding free energy” value was -0.25 kcal/mol. As to TTCTGCACGTGTAGTA, the “relative binding free energy” value worked out at 0.1 kcal/mol. On to TGGTGCACGTGAAATT, for which the “relative binding free energy” value was found to be 0.46 kcal/mol. On to TCGGGCACGTGCGTTT, for which the “relative binding free energy” value is -0.01 kcal/mol. For AAGCTCACGTGTGTAG, the “relative binding free energy” value turned out to be 0.27 kcal/mol. Take AGGTACACGTGGTCAT: the “relative binding free energy” value is 0.01 kcal/mol. Turning to GTACACACGTGTGTGG, the “relative binding free energy” value was 0.04 kcal/mol. As to TGGCACACGTGTTGAG, the “relative binding free energy” value worked out at 0.08 kcal/mol. Regarding TTATTCACGTGGTGAG, the “relative binding free energy” value was found to be 0.3 kcal/mol. With TCTAACACGTGAGGTT, the “relative binding free energy” value worked out at 0.22 kcal/mol.

GGTGTCACGTGTAAAT: the “relative binding free energy” value is 0.28 kcal/mol. For the sequence GGGGGCACGTGTTACG, the “relative binding free energy” value was -0.17 kcal/mol. The figure for CATGACACGTGGAGGT is 0.16 kcal/mol.

On to ACATGCACGTGGTTAT, for which the “relative binding free energy” value was -0.04 kcal/mol. Turning to GGGATCACGTGTATGA, the “relative binding free energy” value came to 0.2 kcal/mol.

For the sequence TGCGTCACGTGGAGGG, the “relative binding free energy” value is -0.02 kcal/mol. With TGGGTCACGTGTAAGA, the “relative binding free energy” value amounted to 0.24 kcal/mol.

Take GTTAGCACGTGTCGGT: the “relative binding free energy” value came to 0.09 kcal/mol. Regarding TTTGTCACGTGTAGCT, the “relative binding free energy” value worked out at 0.19 kcal/mol. The figure for ATGGTCACGTGTTGAA is -0.01 kcal/mol; for CATTGCACGTGTGTAG it is 0.05 kcal/mol; for ATGGTCACGTGAGTAG it is 0.33 kcal/mol. In the case of GTGCTCACGTGGGGAT, the “relative binding free energy” value is 0.16 kcal/mol. Regarding TGTCGCACGTGTTTAT, the “relative binding free energy” value is -0.1 kcal/mol. Take TTAGACACGTGAGGGA: the “relative binding free energy” value was found to be 0.26 kcal/mol. Consider ATGCACACGTGATGTG, for which the “relative binding free energy” value turned out to be 0.16 kcal/mol. For the sequence TGTTACACGTGGCTTT, the “relative binding free energy” value is -0.02 kcal/mol. On to AGTGCCACGTGCGGTG, for which the “relative binding free energy” value was -0.22 kcal/mol. On to CGTGGCACGTGAGAGT, for which the “relative binding free energy” value came to 0.21 kcal/mol.

Consider GAGTGCACGTGAGCTG, for which the “relative binding free energy” value was 0.18 kcal/mol.

Take CGGGACACGTGGTTGG: the “relative binding free energy” value is -0.11 kcal/mol. With TGTATCACGTGCGGAT, the “relative binding free energy” value was -0.01 kcal/mol.

In the case of TGCGTCACGTGTGCGT, the “relative binding free energy” value was -0.01 kcal/mol. For CTAAGCACGTGTGTGG, the “relative binding free energy” value was -0.16 kcal/mol. The value for GGTACCACGTGGGAGT was -0.19 kcal/mol; that for TTTGCCACGTGGGGTA was -0.26 kcal/mol. As for TTATACACGTGTTATG, the “relative binding free energy” value turned out to be 0.07 kcal/mol.

For TGGGTCACGTGGTACA, the “relative binding free energy” value is -0.08 kcal/mol. The figure for AGGTGCACGTGCGGAA is -0.12 kcal/mol; for CGGTGCACGTGCGGGA it is -0.15 kcal/mol; for TTTTTCACGTGGGTCC it is 0.28 kcal/mol. On to GGGCGCACGTGTAGCG, for which the “relative binding free energy” value worked out at 0.03 kcal/mol. With TCGAACACGTGTGTGT, the “relative binding free energy” value is -0.05 kcal/mol.

Consider TAGGACACGTGATGGG, for which the “relative binding free energy” value is 0.19 kcal/mol. With CTGGGCACGTGTGTCT, the “relative binding free energy” value is -0.11 kcal/mol. In the case of TGATGCACGTGATGTT, the “relative binding free energy” value came to 0.18 kcal/mol. Consider TTATGCACGTGAAATA, for which the “relative binding free energy” value was determined as 0.17 kcal/mol.

With TGAGTCACGTGGCTGA, the “relative binding free energy” value came out at 0.03 kcal/mol.

AGGGCCACGTGGACGG: the “relative binding free energy” value was -0.11 kcal/mol. Regarding AGAGTCACGTGATTAG, the “relative binding free energy” value worked out at 0.21 kcal/mol. Regarding AATAACACGTGAGTGT, the “relative binding free energy” value is 0.27 kcal/mol.

For the sequence AAGTGCACGTGAGCTG, the “relative binding free energy” value turned out to be 0.24 kcal/mol. GAGTGCACGTGTTTCT: the “relative binding free energy” value was 0.04 kcal/mol. The figure for TAAGACACGTGGTGTT is -0.03 kcal/mol; for AGACGCACGTGGCTGT it is -0.01 kcal/mol; for ATGGGCACGTGTGGCG it is 0.03 kcal/mol.

With GCTGTCACGTGTTGCG, the “relative binding free energy” value worked out at 0.17 kcal/mol. Regarding ATCTCCACGTGTGTTT, the “relative binding free energy” value was determined as 0.15 kcal/mol.

In the case of GGGGCCACGTGGTACA, the “relative binding free energy” value is 0.03 kcal/mol. With TAGGTCACGTGGTCGA, the “relative binding free energy” value was -0.06 kcal/mol. For AGTTCCACGTGGGATT, the “relative binding free energy” value is -0.08 kcal/mol. Regarding TAGGTCACGTGACGCT, the “relative binding free energy” value came to 0.18 kcal/mol. The figure for GTGAACACGTGGATGG is 0.05 kcal/mol; for GTGGGCACGTGGGTAG it is -0.21 kcal/mol; for GATTTCACGTGAGATT it is 0.54 kcal/mol. In the case of TATCACACGTGTGGCT, the “relative binding free energy” value was determined as 0.33 kcal/mol.

These data come from the BET-seq Pho4 binding data (Le et al. 2018).
